{"sequences": {"note": "Chains of the proteins cited; added tags and fusions are not shown.", "UniProt O95271": "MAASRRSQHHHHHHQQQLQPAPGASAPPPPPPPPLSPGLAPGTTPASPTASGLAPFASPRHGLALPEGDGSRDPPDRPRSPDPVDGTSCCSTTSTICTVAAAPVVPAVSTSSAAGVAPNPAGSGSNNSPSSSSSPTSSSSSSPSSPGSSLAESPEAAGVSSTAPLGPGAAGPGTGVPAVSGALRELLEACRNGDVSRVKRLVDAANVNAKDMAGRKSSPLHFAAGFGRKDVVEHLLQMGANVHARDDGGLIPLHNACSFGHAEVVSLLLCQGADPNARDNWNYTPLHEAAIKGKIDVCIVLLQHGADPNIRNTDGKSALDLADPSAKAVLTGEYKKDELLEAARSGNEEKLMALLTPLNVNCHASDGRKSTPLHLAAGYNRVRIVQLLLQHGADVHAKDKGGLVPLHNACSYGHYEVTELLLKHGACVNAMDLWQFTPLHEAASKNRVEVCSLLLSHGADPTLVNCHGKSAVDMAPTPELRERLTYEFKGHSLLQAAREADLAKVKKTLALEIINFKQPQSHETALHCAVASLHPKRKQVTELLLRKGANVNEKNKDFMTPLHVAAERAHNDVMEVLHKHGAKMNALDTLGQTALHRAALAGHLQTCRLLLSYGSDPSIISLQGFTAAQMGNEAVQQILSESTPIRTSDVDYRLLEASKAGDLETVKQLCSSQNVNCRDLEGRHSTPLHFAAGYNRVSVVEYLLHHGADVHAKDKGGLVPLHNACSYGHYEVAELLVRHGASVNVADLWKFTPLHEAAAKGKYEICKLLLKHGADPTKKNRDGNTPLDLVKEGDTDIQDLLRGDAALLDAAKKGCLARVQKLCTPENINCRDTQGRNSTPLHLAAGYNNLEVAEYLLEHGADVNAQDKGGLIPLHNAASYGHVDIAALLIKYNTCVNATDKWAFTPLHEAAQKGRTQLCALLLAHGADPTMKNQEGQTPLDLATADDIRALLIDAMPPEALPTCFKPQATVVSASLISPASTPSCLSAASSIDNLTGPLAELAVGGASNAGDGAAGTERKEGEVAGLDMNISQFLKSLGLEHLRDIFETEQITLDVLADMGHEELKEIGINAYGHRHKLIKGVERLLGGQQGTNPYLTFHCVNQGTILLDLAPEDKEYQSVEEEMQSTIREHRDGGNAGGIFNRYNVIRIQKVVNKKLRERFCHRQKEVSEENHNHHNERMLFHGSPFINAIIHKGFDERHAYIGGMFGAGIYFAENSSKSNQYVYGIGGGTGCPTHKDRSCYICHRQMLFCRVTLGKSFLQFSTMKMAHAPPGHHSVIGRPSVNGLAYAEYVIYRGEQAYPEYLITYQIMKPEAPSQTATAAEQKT"}, "source": "paper PMC10632493", "key": {"[1]": {"target": "FlagRNF166 UIM deletion (UIMΔ; UΔ) (UniProt Q96A37)", "assay": "co-IP; TNKS1/2 DKO HEK293T cells cotransfected with TNKS1 (or MycSAMPARP) and Flag plasmids; TNE lysate; anti-Flag beads 2 h at 4 °C; immunoblot"}, "Flag-tagged DTX2": {"target": "T1, Flag-tagged DTX2 (UniProt Q86UW9)", "T1 sequence": "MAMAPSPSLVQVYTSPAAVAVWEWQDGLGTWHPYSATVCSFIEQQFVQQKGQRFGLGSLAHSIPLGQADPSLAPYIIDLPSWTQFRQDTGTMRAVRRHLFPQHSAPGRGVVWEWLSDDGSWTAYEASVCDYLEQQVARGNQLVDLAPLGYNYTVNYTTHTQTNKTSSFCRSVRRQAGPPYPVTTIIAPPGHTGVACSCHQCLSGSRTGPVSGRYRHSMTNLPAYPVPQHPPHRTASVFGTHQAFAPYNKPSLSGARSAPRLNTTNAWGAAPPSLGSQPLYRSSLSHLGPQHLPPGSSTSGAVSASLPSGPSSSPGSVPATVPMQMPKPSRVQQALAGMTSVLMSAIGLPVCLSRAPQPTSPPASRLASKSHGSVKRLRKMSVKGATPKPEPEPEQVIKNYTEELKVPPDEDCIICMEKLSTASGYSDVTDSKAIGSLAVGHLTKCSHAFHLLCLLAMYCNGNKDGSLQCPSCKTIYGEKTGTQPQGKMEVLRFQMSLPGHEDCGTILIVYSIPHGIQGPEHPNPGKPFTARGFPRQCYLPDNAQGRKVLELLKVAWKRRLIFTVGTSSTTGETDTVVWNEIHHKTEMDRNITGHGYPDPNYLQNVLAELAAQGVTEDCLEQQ", "assay": "co-IP; as a3, cells treated with tankyrase inhibitor #8 (TNKSi, 10 µM): TNKS1/2 DKO HEK293T cells cotransfected with TNKS1 and Flag plasmids; anti-Flag beads; immunoblot"}, "Flag-tagged DTX4": {"target": "T2, Flag-tagged DTX4 (UniProt Q9Y2E6)", "T2 sequence": "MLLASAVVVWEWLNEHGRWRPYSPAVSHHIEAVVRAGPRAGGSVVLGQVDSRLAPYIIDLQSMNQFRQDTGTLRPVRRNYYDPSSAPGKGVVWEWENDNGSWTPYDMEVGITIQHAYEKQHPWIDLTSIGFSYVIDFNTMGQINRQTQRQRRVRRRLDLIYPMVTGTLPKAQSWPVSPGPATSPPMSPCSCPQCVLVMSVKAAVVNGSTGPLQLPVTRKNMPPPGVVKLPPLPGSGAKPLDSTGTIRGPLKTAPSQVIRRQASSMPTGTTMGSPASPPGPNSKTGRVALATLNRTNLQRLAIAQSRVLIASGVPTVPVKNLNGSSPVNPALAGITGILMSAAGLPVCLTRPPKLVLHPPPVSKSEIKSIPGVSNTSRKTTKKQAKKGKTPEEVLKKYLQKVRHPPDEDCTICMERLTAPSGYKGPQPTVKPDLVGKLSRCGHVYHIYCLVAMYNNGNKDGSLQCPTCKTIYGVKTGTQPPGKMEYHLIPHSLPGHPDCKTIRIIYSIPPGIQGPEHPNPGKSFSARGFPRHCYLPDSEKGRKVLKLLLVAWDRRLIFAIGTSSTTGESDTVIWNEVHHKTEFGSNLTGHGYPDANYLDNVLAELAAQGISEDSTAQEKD", "assay": "co-IP; as a3, cells treated with tankyrase inhibitor #8 (TNKSi, 10 µM): TNKS1/2 DKO HEK293T cells cotransfected with TNKS1 and Flag plasmids; anti-Flag beads; immunoblot"}, "Flag-tagged RNF138": {"target": "T3, Flag-tagged RNF138 (UniProt Q8WVD3)", "T3 sequence": "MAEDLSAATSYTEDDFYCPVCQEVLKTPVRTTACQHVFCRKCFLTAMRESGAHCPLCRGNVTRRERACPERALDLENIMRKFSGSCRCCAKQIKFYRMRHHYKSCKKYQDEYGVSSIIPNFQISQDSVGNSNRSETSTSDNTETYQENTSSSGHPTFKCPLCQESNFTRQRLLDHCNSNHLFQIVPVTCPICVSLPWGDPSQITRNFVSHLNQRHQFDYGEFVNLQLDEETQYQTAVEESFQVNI", "assay": "co-IP; as a3, cells treated with tankyrase inhibitor #8 (TNKSi, 10 µM): TNKS1/2 DKO HEK293T cells cotransfected with TNKS1 and Flag plasmids; anti-Flag beads; immunoblot"}, "Flag-tagged DTX1": {"target": "T4, Flag-tagged DTX1 (UniProt Q86Y01)", "T4 sequence": "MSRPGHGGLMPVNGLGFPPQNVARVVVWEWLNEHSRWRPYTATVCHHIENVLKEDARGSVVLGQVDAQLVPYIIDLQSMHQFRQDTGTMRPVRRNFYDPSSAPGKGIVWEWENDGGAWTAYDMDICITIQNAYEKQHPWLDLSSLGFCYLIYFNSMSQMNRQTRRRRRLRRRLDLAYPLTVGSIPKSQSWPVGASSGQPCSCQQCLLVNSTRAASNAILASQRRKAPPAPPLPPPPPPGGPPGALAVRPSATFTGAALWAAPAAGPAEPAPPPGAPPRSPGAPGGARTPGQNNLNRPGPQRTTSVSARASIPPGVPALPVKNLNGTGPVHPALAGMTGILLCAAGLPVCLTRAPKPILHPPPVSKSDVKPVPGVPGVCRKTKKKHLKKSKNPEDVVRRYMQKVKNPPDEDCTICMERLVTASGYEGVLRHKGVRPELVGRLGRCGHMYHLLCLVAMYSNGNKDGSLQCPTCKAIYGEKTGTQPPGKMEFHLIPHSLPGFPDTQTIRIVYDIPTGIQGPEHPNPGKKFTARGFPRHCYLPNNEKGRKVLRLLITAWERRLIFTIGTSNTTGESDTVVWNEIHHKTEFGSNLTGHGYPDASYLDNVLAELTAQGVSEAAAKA", "assay": "co-IP; as a3, cells treated with tankyrase inhibitor #8 (TNKSi, 10 µM): TNKS1/2 DKO HEK293T cells cotransfected with TNKS1 and Flag plasmids; anti-Flag beads; immunoblot"}, "Flag-tagged RNF125": {"target": "T5, Flag-tagged RNF125 (UniProt Q96EQ8)", "T5 sequence": "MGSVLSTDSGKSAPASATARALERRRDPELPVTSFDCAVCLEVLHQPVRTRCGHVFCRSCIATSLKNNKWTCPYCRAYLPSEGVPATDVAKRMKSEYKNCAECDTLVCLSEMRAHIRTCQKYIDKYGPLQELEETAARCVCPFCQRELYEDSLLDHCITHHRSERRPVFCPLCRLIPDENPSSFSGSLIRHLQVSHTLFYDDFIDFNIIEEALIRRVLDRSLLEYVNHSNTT", "assay": "co-IP; as a3, cells treated with tankyrase inhibitor #8 (TNKSi, 10 µM): TNKS1/2 DKO HEK293T cells cotransfected with TNKS1 and Flag plasmids; anti-Flag beads; immunoblot"}, "[2]": {"target": "Flag-epitope-tagged RNF166 (FlagRNF166) (UniProt Q96A37)", "assay": "co-IP; as a3, cells treated with tankyrase inhibitor #8 (TNKSi, 10 µM): TNKS1/2 DKO HEK293T cells cotransfected with TNKS1 and Flag plasmids; anti-Flag beads; immunoblot"}}, "note": "These are yes or no findings as the source states them, for the method shown. Binding seen in cells or lysates may run through a third protein. Some results given as binding are weak or reduced against the parent protein; the word gives no strength. For some of these results: Sequences can lack the tags named with a protein."}
{"substance": "TNKS1 (transfected, TNKS.WT) (from UniProt O95271 1-1327) (enzyme)", "values": [{"measurement": "binding", "setting": "[1]", "result": "binds"}, {"measurement": "binding", "setting": "Flag-tagged DTX2", "result": "no binding (condition: with TNKSi (10 µM))"}, {"measurement": "binding", "setting": "Flag-tagged DTX4", "result": "no binding (condition: with TNKSi (10 µM))"}, {"measurement": "binding", "setting": "Flag-tagged RNF138", "result": "binds weakly"}, {"measurement": "binding", "setting": "Flag-tagged DTX1", "result": "no binding (condition: with TNKSi (10 µM))"}, {"measurement": "binding", "setting": "Flag-tagged RNF125", "result": "binds weakly"}, {"measurement": "binding", "setting": "[2]", "result": "binds weakly"}]}
